# Data reported in the GPR68 mutational scans of Howard et al. (2025).
# Scores whose standard error is large were omitted. Two further conditions of the source, in which the scores hardly spread, are not listed. In variant names, del marks residues removed and ins residues inserted between the two positions. For some of these results: The data file names ogerin without a concentration.
# B1: GPR68, Q15743 (parent)
# chain: MGNITADNSSMSCTIDHTIHQTLAPVVYVTVLVVGFPANCLSLYFGYLQIKARNELGVYLCNLTVADLFYICSLPFWLQYVLQHDNWSHGDLSCQVCGILLYENIYISVGFLCCISVDRYLAVAHPFRFHQFRTLKAAVGVSVVIWAKELLTSIYFLMHEEVIEDENQHRVCFEHYPIQAWQRAINYYRFLVGFLFPICLLLASYQGILRAVRRSHGTQKSRKDQIQRLVLSTVVIFLACFLPYHVLLLVRSVWEASCDFAKGVFNAYHFSLLLTSFNCVADPVLYCFVSETTHRDLARLRGACLAFLTCSRTGRAREAYPLGAPEASGKSGAQGEEPELLTKLHPAFQTPNSPGSGGFPTGRLA
# Experiments:
# [1] = variants of: B1; test: cAMP reporter score (Enrich2 score, wild type = 0); higher = more signal; HEK293T, FACS bins
# [2] = variants of: B1; test: surface expression score (Enrich2 score, wild type = 0); higher = more signal; HEK293T, FACS bins
variant,measurement,setting,value
H20Y,cAMP reporter score,[1]; pH 5.5,-0.958
same,cAMP reporter score,[1]; pH 6,-0.316
same,cAMP reporter score,"[1]; pH 6, modulator: ogerin",-1.13
same,cAMP reporter score,"[1]; pH 6.5, modulator: ogerin",-0.842
same,surface expression score,[2],1.63
H20_Q21del,cAMP reporter score,[1]; pH 5.5,-1.57
same,cAMP reporter score,[1]; pH 6,-0.475
same,cAMP reporter score,"[1]; pH 6, modulator: ogerin",-1.36
same,cAMP reporter score,"[1]; pH 6.5, modulator: ogerin",-1.31
same,surface expression score,[2],-0.859
H20_Q21insG,cAMP reporter score,[1]; pH 5.5,-1.6
same,cAMP reporter score,[1]; pH 6,-0.594
same,cAMP reporter score,"[1]; pH 6, modulator: ogerin",-1.41
same,cAMP reporter score,"[1]; pH 6.5, modulator: ogerin",-0.814
same,surface expression score,[2],-1.49
H20_Q21insGS,cAMP reporter score,[1]; pH 5.5,-1.57
same,cAMP reporter score,[1]; pH 6,-1.31
same,cAMP reporter score,"[1]; pH 6, modulator: ogerin",-2.35
same,cAMP reporter score,"[1]; pH 6.5, modulator: ogerin",-1.56
same,surface expression score,[2],-1.95
H20del,cAMP reporter score,[1]; pH 5.5,-1.21
same,cAMP reporter score,[1]; pH 6,-0.456
same,cAMP reporter score,"[1]; pH 6, modulator: ogerin",-1.27
same,cAMP reporter score,"[1]; pH 6.5, modulator: ogerin",-0.819
same,surface expression score,[2],0.831
Q21_L23del,cAMP reporter score,[1]; pH 5.5,-1.42
same,cAMP reporter score,[1]; pH 6,-0.628
same,cAMP reporter score,"[1]; pH 6, modulator: ogerin",-1.94
same,cAMP reporter score,"[1]; pH 6.5, modulator: ogerin",-1.03
same,surface expression score,[2],-3.4
Q21_T22insGSG,cAMP reporter score,[1]; pH 5.5,-1.07
same,cAMP reporter score,[1]; pH 6,-1.23
same,cAMP reporter score,"[1]; pH 6, modulator: ogerin",-2.25
same,cAMP reporter score,"[1]; pH 6.5, modulator: ogerin",-1.08
same,surface expression score,[2],-2.08
T22_L23insGSG,cAMP reporter score,[1]; pH 5.5,-1.17
same,cAMP reporter score,[1]; pH 6,-0.252
same,cAMP reporter score,"[1]; pH 6, modulator: ogerin",-1.54
same,cAMP reporter score,"[1]; pH 6.5, modulator: ogerin",-0.814
same,surface expression score,[2],-2.73
L23_A24del,cAMP reporter score,[1]; pH 5.5,-0.556
same,cAMP reporter score,[1]; pH 6,-0.943
same,cAMP reporter score,"[1]; pH 6, modulator: ogerin",-1.84
same,cAMP reporter score,"[1]; pH 6.5, modulator: ogerin",-0.853
same,surface expression score,[2],-2.45
L23_A24insG,cAMP reporter score,[1]; pH 5.5,-1.71
same,cAMP reporter score,[1]; pH 6,-1.68
same,cAMP reporter score,"[1]; pH 6, modulator: ogerin",-1.51
same,cAMP reporter score,"[1]; pH 6.5, modulator: ogerin",-0.854
same,surface expression score,[2],-2.05
L23_A24insGS,cAMP reporter score,[1]; pH 5.5,-2.15
same,cAMP reporter score,[1]; pH 6,-1.66
same,cAMP reporter score,"[1]; pH 6, modulator: ogerin",-2.12
same,cAMP reporter score,"[1]; pH 6.5, modulator: ogerin",-1
same,surface expression score,[2],-2.63
L23_P25del,cAMP reporter score,[1]; pH 5.5,-0.892
same,cAMP reporter score,[1]; pH 6,-0.872
same,cAMP reporter score,"[1]; pH 6, modulator: ogerin",-1.17
same,cAMP reporter score,"[1]; pH 6.5, modulator: ogerin",-0.819
same,surface expression score,[2],-1.95
L23del,cAMP reporter score,[1]; pH 5.5,-1.73
same,cAMP reporter score,[1]; pH 6,-1.26
same,cAMP reporter score,"[1]; pH 6, modulator: ogerin",-1.5
same,cAMP reporter score,"[1]; pH 6.5, modulator: ogerin",-1.76
same,surface expression score,[2],-3.09
A24_P25insGS,cAMP reporter score,[1]; pH 5.5,-1.27
same,cAMP reporter score,[1]; pH 6,-1.63
same,cAMP reporter score,"[1]; pH 6, modulator: ogerin",-1.63
same,cAMP reporter score,"[1]; pH 6.5, modulator: ogerin",-1.22
same,surface expression score,[2],-2.94
P25_V26insGSG,cAMP reporter score,[1]; pH 5.5,-1.78
same,cAMP reporter score,[1]; pH 6,-0.927
same,cAMP reporter score,"[1]; pH 6, modulator: ogerin",-1.43
same,cAMP reporter score,"[1]; pH 6.5, modulator: ogerin",-0.812
same,surface expression score,[2],-2.86
P25_V27del,cAMP reporter score,[1]; pH 5.5,-1.66
same,cAMP reporter score,[1]; pH 6,-0.738
same,cAMP reporter score,"[1]; pH 6, modulator: ogerin",-0.318
same,cAMP reporter score,"[1]; pH 6.5, modulator: ogerin",-1.06
same,surface expression score,[2],-2.48
P25del,cAMP reporter score,[1]; pH 5.5,-1.4
same,cAMP reporter score,[1]; pH 6,-0.4
same,cAMP reporter score,"[1]; pH 6, modulator: ogerin",-1.34
same,cAMP reporter score,"[1]; pH 6.5, modulator: ogerin",-0.914
same,surface expression score,[2],1.01
V26_V27insG,cAMP reporter score,[1]; pH 5.5,-0.071
same,cAMP reporter score,"[1]; pH 6, modulator: ogerin",-1.47
same,cAMP reporter score,"[1]; pH 6.5, modulator: ogerin",-0.308
same,surface expression score,[2],-2.85
V26_V27insGSG,cAMP reporter score,[1]; pH 5.5,-0.473
same,cAMP reporter score,[1]; pH 6,0.045
same,cAMP reporter score,"[1]; pH 6, modulator: ogerin",-0.882
same,cAMP reporter score,"[1]; pH 6.5, modulator: ogerin",-0.266
same,surface expression score,[2],-1.96
V26_Y28del,cAMP reporter score,[1]; pH 5.5,-1.49
same,cAMP reporter score,[1]; pH 6,-0.454
same,cAMP reporter score,"[1]; pH 6, modulator: ogerin",-1.33
same,cAMP reporter score,"[1]; pH 6.5, modulator: ogerin",-0.798
same,surface expression score,[2],-2.14
V27_V29del,cAMP reporter score,[1]; pH 5.5,-1.46
same,cAMP reporter score,[1]; pH 6,-1.35
same,cAMP reporter score,"[1]; pH 6, modulator: ogerin",-1.41
same,cAMP reporter score,"[1]; pH 6.5, modulator: ogerin",-1.8
same,surface expression score,[2],-3.06
Y28_V29insGSG,cAMP reporter score,[1]; pH 5.5,-1.65
same,cAMP reporter score,[1]; pH 6,-1.07
same,cAMP reporter score,"[1]; pH 6, modulator: ogerin",-2.37
same,cAMP reporter score,"[1]; pH 6.5, modulator: ogerin",-1.18
same,surface expression score,[2],-2.05
V29A,cAMP reporter score,[1]; pH 5.5,-0.481
same,cAMP reporter score,[1]; pH 6,-0.726
same,cAMP reporter score,"[1]; pH 6, modulator: ogerin",-1.22
same,cAMP reporter score,"[1]; pH 6.5, modulator: ogerin",-1.11
same,surface expression score,[2],-1.07
V29C,cAMP reporter score,[1]; pH 5.5,-1.1
same,cAMP reporter score,[1]; pH 6,-0.826
same,cAMP reporter score,"[1]; pH 6, modulator: ogerin",-0.915
same,cAMP reporter score,"[1]; pH 6.5, modulator: ogerin",-1.15
same,surface expression score,[2],-1.57
V29D,cAMP reporter score,[1]; pH 5.5,-1.8
same,cAMP reporter score,[1]; pH 6,-0.209
same,cAMP reporter score,"[1]; pH 6, modulator: ogerin",-1.97
same,cAMP reporter score,"[1]; pH 6.5, modulator: ogerin",-1.68
same,surface expression score,[2],-1.51
V29F,cAMP reporter score,[1]; pH 5.5,0.212
same,cAMP reporter score,[1]; pH 6,-0.604
same,cAMP reporter score,"[1]; pH 6, modulator: ogerin",-0.262
same,cAMP reporter score,"[1]; pH 6.5, modulator: ogerin",-0.416
same,surface expression score,[2],-0.092
V29G,cAMP reporter score,[1]; pH 5.5,-0.823
same,cAMP reporter score,[1]; pH 6,-1.65
same,cAMP reporter score,"[1]; pH 6, modulator: ogerin",-0.677
same,cAMP reporter score,"[1]; pH 6.5, modulator: ogerin",-0.926
same,surface expression score,[2],-1.24
V29H,cAMP reporter score,[1]; pH 5.5,-1.14
same,cAMP reporter score,[1]; pH 6,-0.427
same,cAMP reporter score,"[1]; pH 6, modulator: ogerin",-1.01
same,cAMP reporter score,"[1]; pH 6.5, modulator: ogerin",-1.06
same,surface expression score,[2],-2.41
V29I,cAMP reporter score,[1]; pH 5.5,0.061
same,cAMP reporter score,"[1]; pH 6, modulator: ogerin",0.255
same,cAMP reporter score,"[1]; pH 6.5, modulator: ogerin",0.956
same,surface expression score,[2],0.084
V29K,cAMP reporter score,[1]; pH 5.5,-0.969
same,cAMP reporter score,[1]; pH 6,-0.369
same,cAMP reporter score,"[1]; pH 6, modulator: ogerin",-1.54
same,cAMP reporter score,"[1]; pH 6.5, modulator: ogerin",-1.19
same,surface expression score,[2],-2.41
